Experimental data reported in PMC6042961.
These are yes or no findings as the source states them, for the method shown. Binding seen in cells or lysates may run through a third protein. Some binding calls cover weakened binding; strength is not graded here. Where a sequence is shown, tags or fusion partners need not be part of it.

Legend:
Assay in all cases: co-IP; lysates in 1% Triton X-100, 150 mM NaCl, 50 mM Tris-HCl pH 7.5; anti-HA or anti-V5 magnetic beads 1 hr at 4°C; wash with 300 mM NaCl; western blot; HEK293T cells (wild type, ADAM17 KO, FRMD8 KO, or iRhom1/2 DKO reconstituted with iRhom2^WT-3xHA; with or without 200 nM PMA for 30 min)
[1] = molecular target: T1, human iRhom2-3xHA (human) (UniProt Q6PJF5)
T1 sequence: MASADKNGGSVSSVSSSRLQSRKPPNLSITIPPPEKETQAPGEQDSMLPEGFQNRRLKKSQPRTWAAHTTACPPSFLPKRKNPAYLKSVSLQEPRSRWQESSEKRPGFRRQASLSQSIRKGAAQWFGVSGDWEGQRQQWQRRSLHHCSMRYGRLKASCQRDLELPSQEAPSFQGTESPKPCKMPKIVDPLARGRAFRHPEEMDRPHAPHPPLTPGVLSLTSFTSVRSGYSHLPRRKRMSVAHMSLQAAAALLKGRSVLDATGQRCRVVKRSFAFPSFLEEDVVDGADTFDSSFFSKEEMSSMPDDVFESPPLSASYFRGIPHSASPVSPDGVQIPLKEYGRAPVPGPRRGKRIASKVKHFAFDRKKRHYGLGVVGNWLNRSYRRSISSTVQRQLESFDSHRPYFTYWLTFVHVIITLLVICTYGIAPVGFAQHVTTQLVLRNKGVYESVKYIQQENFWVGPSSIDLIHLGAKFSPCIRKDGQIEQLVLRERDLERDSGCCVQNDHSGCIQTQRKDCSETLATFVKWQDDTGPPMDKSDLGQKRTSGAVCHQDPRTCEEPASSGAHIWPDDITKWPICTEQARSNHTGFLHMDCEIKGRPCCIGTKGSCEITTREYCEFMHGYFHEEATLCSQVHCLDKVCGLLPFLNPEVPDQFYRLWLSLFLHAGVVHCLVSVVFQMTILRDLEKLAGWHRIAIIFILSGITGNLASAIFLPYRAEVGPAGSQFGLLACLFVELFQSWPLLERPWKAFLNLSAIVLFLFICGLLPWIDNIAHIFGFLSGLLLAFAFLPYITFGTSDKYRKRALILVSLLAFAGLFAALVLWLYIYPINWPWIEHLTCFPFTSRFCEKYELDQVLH

[2] = molecular target: T2, human iRhom2^Δ200-3xHA (human) (UniProt Q6PJF5)
T2 sequence: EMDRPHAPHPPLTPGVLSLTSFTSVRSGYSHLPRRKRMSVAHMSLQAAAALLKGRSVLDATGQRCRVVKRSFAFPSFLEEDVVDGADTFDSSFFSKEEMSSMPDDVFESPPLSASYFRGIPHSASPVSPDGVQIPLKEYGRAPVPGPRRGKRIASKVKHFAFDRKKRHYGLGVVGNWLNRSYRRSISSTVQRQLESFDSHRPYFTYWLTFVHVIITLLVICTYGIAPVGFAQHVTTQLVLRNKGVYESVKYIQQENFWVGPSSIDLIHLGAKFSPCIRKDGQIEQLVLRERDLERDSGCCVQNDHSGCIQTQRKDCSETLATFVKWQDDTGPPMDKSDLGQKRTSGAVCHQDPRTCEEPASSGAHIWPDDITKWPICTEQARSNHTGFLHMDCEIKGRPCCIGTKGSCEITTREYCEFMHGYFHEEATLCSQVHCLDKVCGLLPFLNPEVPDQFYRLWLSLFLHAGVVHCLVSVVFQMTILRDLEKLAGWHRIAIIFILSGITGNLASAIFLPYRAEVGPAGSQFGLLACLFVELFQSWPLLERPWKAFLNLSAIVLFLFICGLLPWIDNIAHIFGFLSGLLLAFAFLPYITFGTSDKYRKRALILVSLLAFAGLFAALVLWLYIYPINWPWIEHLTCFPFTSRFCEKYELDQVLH

[3] = molecular target: T3, human iRhom2^Δ382-3xHA (human) (UniProt Q6PJF5)
T3 sequence: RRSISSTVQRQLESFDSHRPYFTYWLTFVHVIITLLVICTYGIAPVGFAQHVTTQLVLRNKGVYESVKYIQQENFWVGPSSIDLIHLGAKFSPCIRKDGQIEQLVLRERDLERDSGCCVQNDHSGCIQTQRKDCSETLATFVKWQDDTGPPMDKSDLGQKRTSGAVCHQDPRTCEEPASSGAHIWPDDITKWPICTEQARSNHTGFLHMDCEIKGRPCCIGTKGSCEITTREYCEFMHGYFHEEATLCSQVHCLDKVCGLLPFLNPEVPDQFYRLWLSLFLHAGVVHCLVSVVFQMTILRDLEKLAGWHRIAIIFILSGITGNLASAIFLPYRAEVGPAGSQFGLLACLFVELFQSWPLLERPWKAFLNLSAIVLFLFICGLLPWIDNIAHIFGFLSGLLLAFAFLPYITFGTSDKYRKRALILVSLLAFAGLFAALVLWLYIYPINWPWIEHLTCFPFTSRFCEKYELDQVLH

binding [1]: binds
binding [2]: binds
binding [3]: no binding
B1: human FRMD8-V5 (protein, UniProt Q9BZ67-1 1-464)
chain: MDGTEGSAGQPGPAERSHRSSVSSVGARAADVLVYLADDTVVPLAVENLPSLSAHELHRAVREVLQLPDIALDVFALWLVSPLLEVQLKPKHQPYKLGRQWPELLLRFTSAPDDDVAMDEPFLQFRRNVFFPKRRELQIHDEEVLRLLYEEAKGNVLAARYPCDVEDCEALGALVCRVQLGPYQPGRPAACDLREKLDSFLPAHLCKRGQSLFAALRGRGARAGPGEQGLLNAYRQVQEVSSDGGCEAALGTHYRAYLLKCHELPFYGCAFFHGEVDKPAQGFLHRGGRKPVSVAISLEGVHVIDSREKHVLLGLRFQELSWDHTSPEEEEPILWLEFDGDSEGTPVNKLLKIYSKQAELMSSLIEYCIELSQAAEPAGPQDSATGSPSDPSSSLAPVQRPKLRRQGSVVSSRIQHLSTIDYVEDGKGIRRVKPKRTTSFFSRQLSLGQGSYTVVQPGDSLEQG
